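A five-concentration, 48-hour dose response in 96-well plates underlies each endpoint, interpolated linearly between surrounding concentrations. TGI: concentration producing complete growth inhibition.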
System: NCI-H322M lung
Test: NCI-60 cell line screen, 48 h

Row | Structure (SMILES) | TGI
1 | Cc1ccc2c(c1CCCC(C)(C)O)C(=O)C(=O)C(C(C)C)=C2O | > 100 µM
2 | COc1ccc2c(c1)CC[C@@H]1[C@@H]2CC[C@]2(C)C(=O)/C(=C/c3ccc(OC)c(OC)c3)C[C@@H]12 | > 100 µM
